Test results published in the RNAGym collection of RNA variant scans (doi:10.7554/elife.90254).
The source gives no read counts; variants with many changes may rest on few reads.

B1: LINE1-mini (parent)
chain: GGCAGAGCUCAACACAGCGUGGCAAAGUGGCUGUGGCUAGACUGCC

Variants of: B1
Experiment: self-cleavage, relative activity (ratio to wild type); higher = more cleavage; in vitro, sequencing; the parent is a self-cleaving ribozyme

Variant	self-cleavage
G1U G7A A12G G30C U38G G40A	0.03
G2A C3G G7C A12U C15A	0.14
C15G C23G C37A	0.03
G2U G5U C15U G22A U32A G35U	0.02
C3G G29C G40U	0.05
C8A C31U G33A	0.08
G21U G29C G36C G44U	0.05
A6G A26G G33C U34G G40C C42U	0.03
A14G U32A A41G	0.21
A11C C23A C42A C45A	0
G5U A14G C15A U34G C45G	0.02
C3G A26U G29U C46U	0.85
G7C U34C A41C	0.05
C3G A6C A11G C13G A14G G36A	0.02
G7C G19U G30U	0.12
G5C G19C C42A	0.02
A4G G5A A16G G40A U43C	0.01
A4G G21U G40U	0.15
U9A C10A C15A A39C	0.03
G7A G19U C23U	0.05
G2A A4C A6G C13U U20A G29A C31A A39G	0.02

Variant	self-cleavage
C10U A26U G29A G30U U32G	0.02
G1A C3A C23U U34A G36U A41C	1.36
G22A A25C U32A	0.06
G2U U28C U32C	0.03
C3A G7A C42U	0.28
U28C U32A C45U	0.02
C8U C15U C37A C42A	0.45
C8G A12G U28C G29C	0.01
A16U G35U G40U	0.04
G7U C10A G17C G29A	0.03
U20C G27C U43A	0.13
G1U C15U G17A G22U G44C	0.11
G22U A25U G40U	0.15
A14U U28G G36U	0.04
C3G A6C C23A	0.47
C18G U20G G30A	0.21
C13A A14C G22U	0.06
C8U C18A U38C	0.17
C15A G22A G36A U38A	0.04
G1A G2A G5U A12G U20G	0.03
C23A C31G U32G G33C C42A C45U	0.01

Variant	self-cleavage
A6C A41U C46A	0.14
U9C G29U U32A	0.05
C3U U9G C18U G33U	0.05
C8U A12U G22C C31A G40A	0.02
C3U C15A U20G	0.04
U28A G29U C37U	0.01
G7C A16G A25U	0.01
C23A A25U G29C	0.55
G7U A11C C13U	0.02
A4C C13U G17C	0.09
G1C C13U A25G U34A	0.01
C15G U28A C46G	0.1
C3U G22A A25G U38G G40C	0.03
A4G G21U C46A	0.07
G5U G22U A26G A39C C42A	0.02
C15U G30C C31A C37A	0.09
A11U G33A C42U	0.01
G5A C23U U38C G44U	0.08
G7U G40A G44A	0.13
C13A C15A G22C U28A G29C U38A	0.21
C3A G22U G29U C31A G40U	0.15

Variant	self-cleavage
G2C A16U G17A G33C G40U	0.02
G2C U32A U43A	0
G40C C42U G44A	0.02
C3G G7C A11U C23A A24G G40A	0.01
A6G U9G C42A	0.1
G7A A25G U32C G33A G35C	0.03
C8A G22U G30C G33C C42A	0.1
G1U C10A U28C	0
C8G C31G U32C G40A	0.03
C10U U34C G35C G40A C42U	0.01
C10A G21U U34C C37U	0.01
C8A U9G G29U C42U	0.06
U9A A12U C23U C37U	0.01
C3A A25G U34G U43C	0.04
G5C A16G C18A A24G	0.01
G19U G35U C42A G44U	0.01
A12U A25C C42A C45U	0.05
A6C C37G U43C G44A	0.04
A12U A14C A16C	0.16
A11G A12C U32G	0.01
G2U A16C A24C	0.03
